Assay results as given in the supplement of paper PMC8728848.
This is one part of the list.

Tests used:
Test in all cases: glycan array binding signal (z-score within array); higher = stronger binding
Conditions in all cases: glycan notation: IUPAC condensed, linker removed
[1] = target: Gal(b1-3)[Fuc(a1-4)]GlcNAc(b1-3)Gal(b1-4)[Fuc(a1-3)]GlcNAc
How it was run: (§1)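 Glycan array binding is given as a within-array Z-score, which can be read as non-binding when negative. The arrays, 3228 of them, came from the Consortium for Functional Glycomics database and were retained only where the protein sequence was available. Z-scores were averaged across arrays of the same protein sequence at different concentrations or buffers and across linkers.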

[2] = target: Gal(b1-3)[GlcNAc(b1-6)]GalNAc
How it was run: as §1

[3] = target: Gal(b1-3)[Neu5Ac(a2-6)]GalNAc
How it was run: as §1

[4] = target: Gal(b1-3)[Neu5Ac(a2-6)]GlcNAc(b1-6)Gal(b1-4)Glc
How it was run: as §1

[5] = target: Gal(b1-3)[Neu5Ac(b2-6)]GalNAc
How it was run: as §1

[6] = target: Gal(b1-4)GalNAc(a1-3)[Fuc(a1-2)]Gal(b1-4)GlcNAc
How it was run: as §1

[7] = target: Gal(b1-4)GalNAc(b1-3)[Fuc(a1-2)]Gal(b1-4)GlcNAc
How it was run: as §1

Gal(b1-4)Glc = target: Gal(b1-4)Glc
How it was run: as §1

Gal(b1-4)Glc6S = target: Gal(b1-4)Glc6S
How it was run: as §1

Gal(b1-4)GlcNAc = target: Gal(b1-4)GlcNAc
How it was run: as §1

[8] = target: Gal(b1-4)GlcNAc(b1-2)Man(a1-3)[Gal(b1-4)GlcNAc(b1-2)Man(a1-6)]Man(b1-4)GlcNAc(b1-4)GlcNAc
How it was run: as §1

[9] = target: Gal(b1-4)GlcNAc(b1-3)Gal(b1-4)Glc
How it was run: as §1

[10] = target: Gal(b1-4)GlcNAc(b1-3)Gal(b1-4)GlcNAc
How it was run: as §1

[11] = target: Gal(b1-4)GlcNAc(b1-3)Gal(b1-4)GlcNAc(b1-3)Gal(b1-4)GlcNAc
How it was run: as §1

[12] = target: Gal(b1-4)GlcNAc(b1-3)Gal(b1-4)[Fuc(a1-3)]GlcNAc(b1-3)Gal(b1-4)[Fuc(a1-3)]GlcNAc
How it was run: as §1

[13] = target: Gal(b1-4)GlcNAc(b1-3)GalNAc
How it was run: as §1

[14] = target: Gal(b1-4)GlcNAc(b1-3)[Gal(b1-4)GlcNAc(b1-6)]GalNAc
How it was run: as §1

[15] = target: Gal(b1-4)GlcNAc(b1-6)Gal(b1-4)GlcNAc(b1-6)GalNAc
How it was run: as §1

[16] = target: Gal(b1-4)GlcNAc(b1-6)GalNAc
How it was run: as §1

[17] = target: Gal(b1-4)GlcNAc(b1-6)[Gal(b1-3)]GalNAc
How it was run: as §1

Gal3S(b1-3)GalNAc = target: Gal3S(b1-3)GalNAc
How it was run: as §1

Gal3S(b1-3)GlcNAc = target: Gal3S(b1-3)GlcNAc
How it was run: as §1

[18] = target: Gal3S(b1-3)[Fuc(a1-4)]GlcNAc
How it was run: as §1

Gal3S(b1-4)Glc = target: Gal3S(b1-4)Glc
How it was run: as §1

Gal3S(b1-4)Glc6S = target: Gal3S(b1-4)Glc6S
How it was run: as §1

Gal3S(b1-4)GlcNAc = target: Gal3S(b1-4)GlcNAc
How it was run: as §1

Gal3S(b1-4)GlcNAc6S = target: Gal3S(b1-4)GlcNAc6S
How it was run: as §1

Gal3S6S(b1-4)GlcNAc = target: Gal3S6S(b1-4)GlcNAc
How it was run: as §1

Gal3S6S(b1-4)GlcNAc6S = target: Gal3S6S(b1-4)GlcNAc6S
How it was run: as §1

Gal4S(b1-4)GlcNAc = target: Gal4S(b1-4)GlcNAc
How it was run: as §1

Gal4S6S(b1-4)GlcNAc = target: Gal4S6S(b1-4)GlcNAc
How it was run: as §1

Gal6S(b1-4)Glc = target: Gal6S(b1-4)Glc
How it was run: as §1

Gal6S(b1-4)Glc6S = target: Gal6S(b1-4)Glc6S
How it was run: as §1

Gal6S(b1-4)GlcNAc = target: Gal6S(b1-4)GlcNAc
How it was run: as §1

GalNAc(a1-3)Gal = target: GalNAc(a1-3)Gal
How it was run: as §1

GalNAc(a1-3)GalNAc = target: GalNAc(a1-3)GalNAc
How it was run: as §1

[19] = target: GalNAc(b1-3)Gal(a1-4)Gal(b1-4)GlcNAc
How it was run: as §1

GalNAc(b1-3)GalNAc = target: GalNAc(b1-3)GalNAc
How it was run: as §1

GalNAc(b1-4)GlcNAc = target: GalNAc(b1-4)GlcNAc
How it was run: as §1

Glc(a1-4)Glc = target: Glc(a1-4)Glc
How it was run: as §1

Glc(a1-6)Glc(a1-6)Glc = target: Glc(a1-6)Glc(a1-6)Glc
How it was run: as §1

Glc(b1-4)Glc = target: Glc(b1-4)Glc
How it was run: as §1

Glc(b1-6)Glc = target: Glc(b1-6)Glc
How it was run: as §1

GlcA(b1-3)Gal = target: GlcA(b1-3)Gal
How it was run: as §1

GlcA(b1-6)Gal = target: GlcA(b1-6)Gal
How it was run: as §1

[20] = target: GlcNAc(a1-3)Gal(b1-4)GlcNAc
How it was run: as §1

[21] = target: GlcNAc(a1-6)Gal(b1-4)GlcNAc
How it was run: as §1

[22] = target: GlcNAc(b1-2)Gal(b1-3)GalNAc
How it was run: as §1

[23] = target: GlcNAc(b1-2)Man(a1-3)[GlcNAc(b1-2)Man(a1-6)]Man(b1-4)GlcNAc(b1-4)GlcNAc
How it was run: as §1

GlcNAc(b1-3)Gal = target: GlcNAc(b1-3)Gal
How it was run: as §1

[24] = target: GlcNAc(b1-3)Gal(b1-3)GalNAc
How it was run: as §1

GlcNAc(b1-3)Gal(b1-4)Glc = target: GlcNAc(b1-3)Gal(b1-4)Glc
How it was run: as §1

[25] = target: GlcNAc(b1-3)Gal(b1-4)GlcNAc
How it was run: as §1

[26] = target: GlcNAc(b1-3)Gal(b1-4)GlcNAc(b1-3)Gal(b1-4)GlcNAc
How it was run: as §1

GlcNAc(b1-3)GalNAc = target: GlcNAc(b1-3)GalNAc
How it was run: as §1

[27] = target: GlcNAc(b1-3)[GlcNAc(b1-6)]Gal(b1-4)GlcNAc
How it was run: as §1

[28] = target: GlcNAc(b1-3)[GlcNAc(b1-6)]GalNAc
How it was run: as §1

[29] = target: GlcNAc(b1-3)[GlcNAc(b1-6)]GlcNAc(b1-4)GlcNAc
How it was run: as §1

[30] = target: GlcNAc(b1-4)Gal(b1-4)GlcNAc
How it was run: as §1

[31] = target: GlcNAc(b1-4)GlcNAc(b1-4)GlcNAc
How it was run: as §1

[32] = target: GlcNAc(b1-4)GlcNAc(b1-4)GlcNAc(b1-4)GlcNAc(b1-4)GlcNAc
How it was run: as §1

[33] = target: GlcNAc(b1-4)GlcNAc(b1-4)GlcNAc(b1-4)GlcNAc(b1-4)GlcNAc(b1-4)GlcNAc
How it was run: as §1

[34] = target: GlcNAc(b1-4)[GlcNAc(b1-6)]GalNAc
How it was run: as §1

[35] = target: GlcNAc(b1-6)Gal(b1-4)GlcNAc
How it was run: as §1

GlcNAc(b1-6)GalNAc = target: GlcNAc(b1-6)GalNAc
How it was run: as §1

Kdn(a2-3)Gal(b1-3)GlcNAc = target: Kdn(a2-3)Gal(b1-3)GlcNAc
How it was run: as §1

Kdn(a2-3)Gal(b1-4)GlcNAc = target: Kdn(a2-3)Gal(b1-4)GlcNAc
How it was run: as §1

B1: DCAL1 (Homo sapiens), Q8IZS7 (protein)
chain: MVSNFFHVIQVFEKSATLISKTEHIGFVIYSWRKSTTHLGSRRKFAISIYLSEVSLQKYDCPFSGTSFVVFSLFLICAMAGDVVYADIKTVRTSPLELAFPLQRSVSFNFSTVHKSCPAKDWKVHKGKCYWIAETKKSWNKSQNDCAINNSYLMVIQDITAMVRFNI
glycan array binding signal (z-score) [1]: -0.301 | glycan array binding signal (z-score) [2]: -0.177 | glycan array binding signal (z-score) [3]: -0.192 | glycan array binding signal (z-score) [4]: -0.158 | glycan array binding signal (z-score) [5]: -0.274 | glycan array binding signal (z-score) [6]: -0.206 | glycan array binding signal (z-score) [7]: -0.151 | glycan array binding signal (z-score) (Gal(b1-4)Glc): -0.248 | glycan array binding signal (z-score) (Gal(b1-4)Glc6S): -0.212 | glycan array binding signal (z-score) (Gal(b1-4)GlcNAc): -0.138 | glycan array binding signal (z-score) [8]: -0.236 | glycan array binding signal (z-score) [9]: 1.75 | glycan array binding signal (z-score) [10]: -0.218 | glycan array binding signal (z-score) [11]: -0.213 | glycan array binding signal (z-score) [12]: -0.237 | glycan array binding signal (z-score) [13]: -0.154 | glycan array binding signal (z-score) [14]: -0.196 | glycan array binding signal (z-score) [15]: 0.172 | glycan array binding signal (z-score) [16]: -0.275 | glycan array binding signal (z-score) [17]: -0.203 | glycan array binding signal (z-score) (Gal3S(b1-3)GalNAc): -0.144 | glycan array binding signal (z-score) (Gal3S(b1-3)GlcNAc): -0.148 | glycan array binding signal (z-score) [18]: -0.171 | glycan array binding signal (z-score) (Gal3S(b1-4)Glc): -0.249 | glycan array binding signal (z-score) (Gal3S(b1-4)Glc6S): 0.13 | glycan array binding signal (z-score) (Gal3S(b1-4)GlcNAc): -0.175 | glycan array binding signal (z-score) (Gal3S(b1-4)GlcNAc6S): 0.221 | glycan array binding signal (z-score) (Gal3S6S(b1-4)GlcNAc): -0.04 | glycan array binding signal (z-score) (Gal3S6S(b1-4)GlcNAc6S): 1.34 | glycan array binding signal (z-score) (Gal4S(b1-4)GlcNAc): 0.024 | glycan array binding signal (z-score) (Gal4S6S(b1-4)GlcNAc): 0.371 | glycan array binding signal (z-score) (Gal6S(b1-4)Glc): -0.255 | glycan array binding signal (z-score) (Gal6S(b1-4)Glc6S): -0.044 | glycan array binding signal (z-score) (Gal6S(b1-4)GlcNAc): -0.188 | glycan array binding signal (z-score) (GalNAc(a1-3)Gal): -0.202 | glycan array binding signal (z-score) (GalNAc(a1-3)GalNAc): -0.268 | glycan array binding signal (z-score) [19]: -0.276 | glycan array binding signal (z-score) (GalNAc(b1-3)GalNAc): -0.304 | glycan array binding signal (z-score) (GalNAc(b1-4)GlcNAc): -0.166 | glycan array binding signal (z-score) (Glc(a1-4)Glc): 0.023 | glycan array binding signal (z-score) (Glc(a1-6)Glc(a1-6)Glc): -0.234 | glycan array binding signal (z-score) (Glc(b1-4)Glc): -0.149 | glycan array binding signal (z-score) (Glc(b1-6)Glc): -0.198 | glycan array binding signal (z-score) (GlcA(b1-3)Gal): -0.229 | glycan array binding signal (z-score) (GlcA(b1-6)Gal): -0.17 | glycan array binding signal (z-score) [20]: -0.254 | glycan array binding signal (z-score) [21]: -0.057 | glycan array binding signal (z-score) [22]: -0.121 | glycan array binding signal (z-score) [23]: -0.076 | glycan array binding signal (z-score) (GlcNAc(b1-3)Gal): -0.259 | glycan array binding signal (z-score) [24]: -0.239 | glycan array binding signal (z-score) (GlcNAc(b1-3)Gal(b1-4)Glc): -0.236 | glycan array binding signal (z-score) [25]: -0.025 | glycan array binding signal (z-score) [26]: -0.28 | glycan array binding signal (z-score) (GlcNAc(b1-3)GalNAc): -0.293 | glycan array binding signal (z-score) [27]: -0.271 | glycan array binding signal (z-score) [28]: -0.285 | glycan array binding signal (z-score) [29]: -0.148 | glycan array binding signal (z-score) [30]: -0.196 | glycan array binding signal (z-score) [31]: -0.272 | glycan array binding signal (z-score) [32]: -0.233 | glycan array binding signal (z-score) [33]: -0.265 | glycan array binding signal (z-score) [34]: -0.276 | glycan array binding signal (z-score) [35]: -0.208 | glycan array binding signal (z-score) (GlcNAc(b1-6)GalNAc): -0.235 | glycan array binding signal (z-score) (Kdn(a2-3)Gal(b1-3)GlcNAc): -0.183 | glycan array binding signal (z-score) (Kdn(a2-3)Gal(b1-4)GlcNAc): -0.198
